According to article PMC4336329 (PLoS ONE, 2015):
The campaign covered roughly 310,000 compounds. About 14,000 (4.5%) showed an effect of 50% or more. Effects have a minus sign here. The list shows a part of the results.

biological target: human ether-à-go-go-related gene (hERG) potassium channel (human, UniProt Q12809); assay: primary screen, population patch clamp on CHO cells stably expressing hERG
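Note: peak tail current of the secondary pulse compared with the same well before compound.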

Chain of human ether-à-go-go-related gene (hERG) potassium channel (Q12809 whole entry, looked up): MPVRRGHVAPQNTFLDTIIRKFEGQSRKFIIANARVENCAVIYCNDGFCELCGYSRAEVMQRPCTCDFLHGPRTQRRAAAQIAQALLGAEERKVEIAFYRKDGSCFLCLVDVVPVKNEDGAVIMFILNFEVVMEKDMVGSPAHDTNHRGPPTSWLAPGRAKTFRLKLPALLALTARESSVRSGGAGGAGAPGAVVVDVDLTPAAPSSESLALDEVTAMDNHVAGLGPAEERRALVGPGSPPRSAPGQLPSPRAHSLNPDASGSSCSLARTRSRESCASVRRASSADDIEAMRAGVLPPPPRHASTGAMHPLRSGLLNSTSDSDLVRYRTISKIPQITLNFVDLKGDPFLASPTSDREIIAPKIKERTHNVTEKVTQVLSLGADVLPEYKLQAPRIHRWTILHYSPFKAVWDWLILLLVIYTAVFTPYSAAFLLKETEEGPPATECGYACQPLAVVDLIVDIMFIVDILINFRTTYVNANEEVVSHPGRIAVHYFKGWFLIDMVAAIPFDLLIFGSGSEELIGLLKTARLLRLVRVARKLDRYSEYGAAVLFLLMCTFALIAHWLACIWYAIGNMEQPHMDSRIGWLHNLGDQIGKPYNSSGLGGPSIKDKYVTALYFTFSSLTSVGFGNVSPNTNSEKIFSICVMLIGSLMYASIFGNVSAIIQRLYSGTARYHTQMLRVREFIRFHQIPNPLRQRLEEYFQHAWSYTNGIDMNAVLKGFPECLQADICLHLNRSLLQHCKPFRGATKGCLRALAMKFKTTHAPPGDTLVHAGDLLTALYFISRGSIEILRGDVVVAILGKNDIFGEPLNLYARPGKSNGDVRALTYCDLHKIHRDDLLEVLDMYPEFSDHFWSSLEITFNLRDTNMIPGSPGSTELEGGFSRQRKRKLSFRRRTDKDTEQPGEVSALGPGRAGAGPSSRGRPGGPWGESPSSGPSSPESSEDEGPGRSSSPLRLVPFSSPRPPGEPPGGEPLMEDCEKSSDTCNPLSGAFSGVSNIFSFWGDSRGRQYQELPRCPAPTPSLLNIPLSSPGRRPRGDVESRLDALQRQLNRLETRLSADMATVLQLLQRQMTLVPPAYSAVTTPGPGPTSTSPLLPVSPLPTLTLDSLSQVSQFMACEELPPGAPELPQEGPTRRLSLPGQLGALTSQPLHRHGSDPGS

| Structure (SMILES) | hERG current change (%, negative = inhibition) at 10uM |
| --- | --- |
| Cc1ccc(NS(=O)(=O)c2cc3c4c(cccc4c2)C(=O)NC3=O)cc1C | 0.475% |
| CCSc1ccc2cc(OC)ccc2[n+]1CC.[I-] | 10.8% |
| COc1ccc2c(c1)[C@]13CCCCC1C(C2)N(C)CC3 (some centres unmarked) | -1.83% |
| CC1=NN(C(N)=S)C(C)(C)C1 | 18% |
| Cc1cccc(NS(=O)(=O)c2cccc(C(=O)NCC(c3ccco3)N(C)C)c2)c1 (centres unmarked) | -16.6% |
| COc1ccc(CN2CCN(CC=C(C)C)C(CCO)C2)cc1Cn1cccn1 (centres unmarked) | -31.2% |
| CCC(C)(C)NC(=O)CCCSc1nc2ccccc2s1 | -2.19% |
| COc1ccc(-c2cc(C(F)(F)F)nc(SCC(=O)Nc3ccc4c(c3)OCO4)n2)cc1 | 1.32% |
| Cc1cc(C)c(C(=O)NNC(=O)c2cccnc2)c(C)c1 | 17.5% |
| COc1ccc(-c2nnc3n2-c2ccccc2SC3)cc1OC.Cl | 16.2% |
| COC(=O)[C@@H]1[C@H](CCc2ccccc2)NC(=O)N(Cc2ccccc2)[C@@H]1C | -15.1% |
| CCN(CC(=O)NC1CCS(=O)(=O)C1)c1nc(-c2cccnc2)nc2ccccc12 (centres unmarked) | -40.2% |
| Cn1c(CNC(=O)c2ccc(Cl)cc2)nnc1SCC(=O)Nc1sc2c(c1C#N)CCCC2 | -4.19% |
| I.c1ccc2c(c1)nc(N1CCCCCC1)c1ccccc12 | 0.834% |
| CCN(CC)S(=O)(=O)c1ccc(-c2csc(C)n2)cc1 | -12.6% |
| O=C(NCCc1cccc(F)c1)C1CCN(S(=O)(=O)c2ccccc2)CC1 | -26.9% |
| CC1CN(C(=O)CCC(=O)NCCCN2CCN(Cc3ccccc3)CC2)c2cc(Cl)ccc2O1 (centres unmarked) | -76.1% |
| Cc1c(C)c2c(OCC(=O)NCC(C)C)cc3c(c2oc1=O)CCC(C)(C)O3 | 6.44% |
| Cl.O=C(CN1CCCCC1)Nc1cccc([N+](=O)[O-])c1 | -2.28% |
| O=C1CC(N(Cc2cccs2)C(=O)Nc2ccccc2)C(=O)N1c1ccc(Cl)cc1 (centres unmarked) | -22.6% |
| O=C(/C=C/c1ccc(Br)cc1)NC(=S)Nc1ccc(S(=O)(=O)Nc2nccs2)cc1 | 12.1% |
| CN(C)S(=O)(=O)N1CCC(Oc2ccc(C(=O)N3C[C@H]4CC[C@H]3C4)cc2)CC1 | -3.95% |

| Structure (SMILES) | hERG current change (%, negative = inhibition) at 10uM |
| --- | --- |
| Cl.O=C(CN1CCN(CCO)CC1)Nc1ccccc1 | -4.94% |
| COc1ccc(C(C[N+](=O)[O-])c2c(C)cc3ccccn23)cc1 (centres unmarked) | 16.8% |
| C=C1CCN([C@H](C(=O)OCc2cccc(C)c2)C(C)C)S(=O)(=O)c2ccccc21 | 1.84% |
| CCc1ccc(Nc2nc3ccccc3c(=O)s2)cc1 | 20.9% |
| CC(C)(C)OC(=O)CNC(=O)c1nc[nH]c1C(=O)N1CC[NH2+]CC1.[Cl-] | 4.07% |
| COc1ccc(-c2cnc3n2CCCCC3)cc1 | -33.1% |
| CCn1cc(C(=O)N2CC(C)CC(C)C2)c(=O)c2cc(S(=O)(=O)N3CCOCC3)ccc21 (centres unmarked) | -18.3% |
| COc1ccc2c(c1)OC(c1ccccc1)(C(F)(F)F)NC2=O (centres unmarked) | -1.12% |
| COc1ccc(C(=O)OCC(=O)NCC2CCCO2)cc1S(=O)(=O)N1CCCc2ccccc21 (centres unmarked) | -16.6% |
| CC1(C)Cc2c(sc(NC(=O)C(=O)NCC3CCCO3)c2C(=O)O)CO1 (centres unmarked) | -26.7% |
| COc1ccc(/C(C)=N/Nc2nncc3ccccc23)cc1 | 15.6% |
| CCOc1ccc2oc(C(=O)N3CCN(c4ccccc4OCC)CC3)c(C)c2c1 | -52.6% |
| O=C1C2C3C=CC(C3=C3CCCCC3)C2C(=O)N1c1ccccc1 (centres unmarked) | 15.3% |
| COc1cc(C(c2sc3nc(C)nn3c2O)N2CCC3(CC2)OCCO3)cc(OC)c1OC (centres unmarked) | 45.6% |
| CCNc1nc(C23CC4CC(CC(C4)C2)C3)cs1.Cl | 17.3% |
| Cc1nc2ccccc2nc1N1CCOCC1 | 5.42% |
| COc1cccc2c1C(=O)CC2NC(=O)C(F)(F)F (centres unmarked) | 5.18% |
| O=C(C1CCCO1)N1CCN(C(=S)Nc2cccc(F)c2)CC1 (centres unmarked) | 13.8% |
| O=C(CN(Cc1ccccc1)C(=O)CNS(=O)(=O)c1ccc(Cl)cc1)NCC1CCCO1 (centres unmarked) | 11.2% |
| COCCNC(=O)CN1C(=O)NC2(CCCc3ccccc32)C1=O (centres unmarked) | 13.5% |
| COc1cc2c(cc1OC)C(=O)N1[C@H]3c4ccccc4OC[C@@H]3[C@H](c3ccccc3)[C@]1(C)C(=O)N2 | 1.73% |
| CCc1cccc(C)c1NC(=O)CSc1nc2ccncc2[nH]1 | 8.28% |

| Structure (SMILES) | hERG current change (%, negative = inhibition) at 10uM |
| --- | --- |
| Cc1ccc(NC(=O)C2C3C=CC4(O3)C2C(=O)N(CCCN2CCCCC2)C4C(=O)NC2CCCCC2)cc1C (centres unmarked) | 28.8% |
| CCN(CC)c1ccc2cc(C=O)c(=O)oc2c1 | -1.74% |
| CCCCc1cc(=O)oc2c(C)c(OCC(=O)N3CCC(C(=O)O)(c4ccccc4)CC3)ccc12 | 6.82% |
| Cc1cccc(N2CCN(C(=O)c3ccc4c(c3)NC(=O)C(CSCc3cccc(F)c3)N4)CC2C)c1 (centres unmarked) | 17% |
| CC(C(=O)Nc1ccc(Cl)cc1Cl)N1C(=O)NC2(CCCCCCC2)C1=O (centres unmarked) | -2.76% |
| CCC(=O)Nc1cccc(Oc2nc(C)cc(C)c2C#N)c1 | -2.5% |
| O=C(Cc1cccs1)N(Cc1cccs1)C1(C(=O)NC2CCCCC2)CCCCC1 | -1.65% |
| CN(C)CCNC(=O)c1onc(CSc2ccc(F)c(F)c2)c1C(=O)NCCN(C)C | 11.3% |
| COc1ccc2[nH]c(CN3CCC(CO)(CCOc4ccccc4)CC3)c(C)c2c1 | -45.3% |
| CN(CC(=O)Nc1ccc(N2CCOCC2)cc1)C(=O)CC(c1ccccc1)c1ccccc1 | -22% |
| Clc1ccc(-c2nnc(-c3cccnc3)o2)cc1 | -11.8% |
| COc1ccc(-c2cn3ccsc3n2)cc1 | -2.94% |
| O=C(CCC1CCCC1)NCCS(=O)(=O)N1CCN(c2ccccc2F)CC1 | -21.6% |
| c1ccc(CNCCC(Cc2ccccc2)c2ccco2)cc1 (centres unmarked) | -54.8% |
| Cc1c(NC(=O)COC(=O)C2(c3ccccc3F)CCCC2)c(=O)n(-c2ccccc2)n1C | -1.01% |
| CCOc1ccc(S(=O)(=O)NCCC(=O)NCC(c2ccccc2OC)N2CCCC2)cc1 (centres unmarked) | 0.832% |
| CCc1ccc([C@@H]2CC=C(C(=O)O)[C@H](c3ccc(F)cc3)N2S(=O)(=O)c2ccc(C)cc2)cc1 | 21.7% |
| Cc1ccc(CNC(=O)[C@@H](NC(=O)C2CCN(C(=O)[C@@H](N)CC(C)C)CC2)C(C)C)cc1 | 21.2% |
| O=C(NC1CCCN(Cc2ccc(Cl)cc2)C1)C1CCC1 (centres unmarked) | -13.6% |
| CC(C)N1CCN(Cc2ccncc2)CC1CCO (centres unmarked) | 4.5% |
| COC(=O)CSc1nnc(C2COc3ccccc3O2)n1-c1ccccc1 (centres unmarked) | -8.8% |
| COc1cc(CC(=O)OCC(=O)Nc2ccc(S(=O)(=O)N3CCCC3)cc2)cc(OC)c1OC | 1.62% |

| Structure (SMILES) | hERG current change (%, negative = inhibition) at 10uM |
| --- | --- |
| O=[N+]([O-])c1cccc2c(S(=O)(=O)N3CCCCC3)cccc12 | 3.11% |
| O=C(CC1C(=O)NCCN1CCCc1ccccc1)NCCc1ccccc1Cl (centres unmarked) | -15% |
| Cl.OCCNCc1cccc(OCc2ccccc2Cl)c1 | -17.6% |
| CCCCN(C)C(=O)c1sc2ncn(CC)c(=O)c2c1C | -4.5% |
| Cn1nc(C(F)(F)F)c(C(=O)Nc2ccc(F)cc2F)c1Sc1cccc(C(F)(F)F)c1 | 12.1% |
| Cc1cc(C(=O)CSc2ccccc2)cc(C)c1O | 3.81% |
| CC1c2[nH]c3ccccc3c2C[C@H]2C(=O)N(CCO)CC(=O)N12 (some centres unmarked) | 10.2% |
| O=c1cc(CO)oc(C(Nc2ccccn2)c2ccccc2F)c1O (centres unmarked) | 17.5% |
| Cc1ccc(Cl)cc1N1CCN(CC(=O)Nc2ccc3[nH]c(=O)[nH]c3c2)CC1 | 11.1% |
| Cn1cc(C(=O)c2ccc(Cl)cc2Cl)cc1C(=O)N/N=C(\N)COc1ccc(Cl)cc1 | -9.64% |
| COC(=O)c1ccc(NC(=O)C2CCCN(S(=O)(=O)c3cnc[nH]3)C2)cc1 (centres unmarked) | 3.35% |
| CCC(C)(O)c1[nH]c2ccc(C(=O)OC)cc2c1C (centres unmarked) | 4.57% |
| CC1CCCN(C(=O)C2CCCN(S(=O)(=O)c3cccc4nsnc34)C2)C1 (centres unmarked) | 2.02% |
| CN1CCN(C(=O)/C(=C/c2ccc(F)cc2)NC(=O)c2ccccc2)CC1 | -77.8% |
| CCOC(=O)N1CCC(c2nc3ccccc3[nH]2)CC1 | 9.64% |
| OCCCNC(=S)Nc1ccc2nc(-c3ccccn3)c(-c3ccccn3)nc2c1 | 3.83% |
| O=C(Nc1ccc(Cl)cc1)Nc1nnc(CSCc2ccccc2)s1 | 19.6% |
| C=CCNC(=O)c1c(N)n(-c2cccc(S(N)(=O)=O)c2)c2nc3ccccc3nc12 | -4.04% |
| Cc1c(C(=O)N/N=C/c2ccncc2)no[n+]1[O-] | 20.1% |
| CN1C(=O)c2ccc(N(C)C)cc2C1=O | 18.9% |
